{"source": "the supplement of paper PMC10126150", "note": "Sequences with one replicate were seen in a single cluster, so their values are uncertain.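 Also: ATP exposure 15 min at 22 °C before imaging.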"}
{"tested_on": "ATP", "test": "switch fluorescence ratio, 500 uM ATP over buffer (Cy3 cluster intensity, sum of 5 cycles each) (fold (ratio)); higher = stronger signal-on switching upon ATP binding; sequences stand for … in TCGTCGGCAGCGTCAGATGTGTATAAGAGACAGTTTTTTTTTTTTTTTTTTTTTTTTT…TC", "conditions": "aptamer strand: ATP DNA aptamer (quencher-CACCTGGGGGAGTATTGCGGAGGAAGG + anchor), 100 nM annealed; ATP concentration: 500 uM; one replicate", "outline": "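Switching-strand clusters labelled with Cy3 on a modified Illumina MiSeq flow-cell were annealed to 100 nM quencher-labelled ATP aptamer, imaged in selection buffer, and re-imaged after 15 min with 500 uM ATP at 22 °C. This was done over five cycles with NaOH stripping and re-annealing in between. The fluorescence ratio is summed target-cycle over summed buffer-cycle Cy3 intensity per cluster, averaged per switch-domain sequence, excluding clusters outside 100-1000 RFU.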"}
{"sequence": "CGCCTGTCGT", "switch fluorescence ratio": 0.99}
{"sequence": "CGCCTTAGGA", "switch fluorescence ratio": 1.01}
{"sequence": "CGCCTTGTGT", "switch fluorescence ratio": 0.979}
{"sequence": "CGCGACTGTG", "switch fluorescence ratio": 0.986}
{"sequence": "CGCGAGACCG", "switch fluorescence ratio": 1.1}
{"sequence": "CGCGAGGACG", "switch fluorescence ratio": 0.993}
{"sequence": "CGCGATCGGT", "switch fluorescence ratio": 1.15}
{"sequence": "CGCGATTCAG", "switch fluorescence ratio": 1.13}
{"sequence": "CGCGCAACAG", "switch fluorescence ratio": 2.23}
{"sequence": "CGCGCCCCAA", "switch fluorescence ratio": 1.21}
{"sequence": "CGCGCCGTAC", "switch fluorescence ratio": 1.15}
{"sequence": "CGCGCCTATA", "switch fluorescence ratio": 0.99}
{"sequence": "CGCGCTGAAT", "switch fluorescence ratio": 1}
{"sequence": "CGCGCTGATG", "switch fluorescence ratio": 0.992}
{"sequence": "CGCGCTTACG", "switch fluorescence ratio": 1.15}
{"sequence": "CGCGGCAGCC", "switch fluorescence ratio": 0.989}
{"sequence": "CGCGGCCGGA", "switch fluorescence ratio": 0.989}
{"sequence": "CGCGGCGTAC", "switch fluorescence ratio": 2.06}
{"sequence": "CGCGGGGCAG", "switch fluorescence ratio": 0.997}
{"sequence": "CGCGGGTGGA", "switch fluorescence ratio": 1.12}
{"sequence": "CGCGGTAGCC", "switch fluorescence ratio": 0.968}
{"sequence": "CGCGGTATTG", "switch fluorescence ratio": 1.03}
{"sequence": "CGCGGTCTAT", "switch fluorescence ratio": 1.1}
{"sequence": "CGCGGTTTT", "switch fluorescence ratio": 0.976}
{"sequence": "CGCGTACTCA", "switch fluorescence ratio": 2.33}
{"sequence": "CGCGTACTTG", "switch fluorescence ratio": 1.1}
{"sequence": "CGCGTATCCG", "switch fluorescence ratio": 1.03}
{"sequence": "CGCGTATTGA", "switch fluorescence ratio": 1.03}
{"sequence": "CGCGTCGAAC", "switch fluorescence ratio": 1.08}
{"sequence": "CGCGTGTAGT", "switch fluorescence ratio": 1.02}
{"sequence": "CGCGTGTCAT", "switch fluorescence ratio": 1.06}
{"sequence": "CGCGTGTCGG", "switch fluorescence ratio": 1.01}
{"sequence": "CGCGTGTGAC", "switch fluorescence ratio": 1.06}
{"sequence": "CGCGTTCCCG", "switch fluorescence ratio": 1.05}
{"sequence": "CGCGTTTACT", "switch fluorescence ratio": 1.46}
{"sequence": "CGCTACGGTA", "switch fluorescence ratio": 1.13}
{"sequence": "CGCTAGGCCG", "switch fluorescence ratio": 1.01}
{"sequence": "CGCTATCATT", "switch fluorescence ratio": 0.993}
{"sequence": "CGCTATCCGT", "switch fluorescence ratio": 1.04}
{"sequence": "CGCTATGGT", "switch fluorescence ratio": 1.16}
{"sequence": "CGCTATGTCC", "switch fluorescence ratio": 1.27}
{"sequence": "CGCTATGTGT", "switch fluorescence ratio": 0.998}
{"sequence": "CGCTCATCAT", "switch fluorescence ratio": 1.01}
{"sequence": "CGCTCGTTCC", "switch fluorescence ratio": 1.25}
{"sequence": "CGCTGCAAGC", "switch fluorescence ratio": 1.84}
{"sequence": "CGCTGGGGAG", "switch fluorescence ratio": 0.993}
{"sequence": "CGCTGGTTCT", "switch fluorescence ratio": 0.983}
{"sequence": "CGCTGTGGGT", "switch fluorescence ratio": 0.984}
{"sequence": "CGCTGTTACT", "switch fluorescence ratio": 1.87}
{"sequence": "CGCTTATAGA", "switch fluorescence ratio": 1.06}
{"sequence": "CGCTTATGAC", "switch fluorescence ratio": 2.2}
{"sequence": "CGCTTATT", "switch fluorescence ratio": 1.04}
{"sequence": "CGCTTCGTCT", "switch fluorescence ratio": 1.13}
{"sequence": "CGCTTGCAAG", "switch fluorescence ratio": 0.976}
{"sequence": "CGCTTGCCGG", "switch fluorescence ratio": 1.02}
{"sequence": "CGCTTGGGAG", "switch fluorescence ratio": 1}
{"sequence": "CGCTTTACTT", "switch fluorescence ratio": 1.36}
{"sequence": "CGCTTTCCGT", "switch fluorescence ratio": 0.988}
{"sequence": "CGCTTTGATT", "switch fluorescence ratio": 1.01}
{"sequence": "CGGAAAAGAA", "switch fluorescence ratio": 0.99}
{"sequence": "CGGAAACTAA", "switch fluorescence ratio": 0.988}
{"sequence": "CGGAAAGTAA", "switch fluorescence ratio": 1}
{"sequence": "CGGAACCCCG", "switch fluorescence ratio": 1.04}
{"sequence": "CGGAACTGT", "switch fluorescence ratio": 0.972}
{"sequence": "CGGAATCCAA", "switch fluorescence ratio": 0.997}
{"sequence": "CGGAATCGA", "switch fluorescence ratio": 1.06}
{"sequence": "CGGAATCGGA", "switch fluorescence ratio": 0.995}
{"sequence": "CGGAATGATC", "switch fluorescence ratio": 1.24}
{"sequence": "CGGAATGTAG", "switch fluorescence ratio": 0.986}
{"sequence": "CGGAATTCA", "switch fluorescence ratio": 1.02}
{"sequence": "CGGACCAGTC", "switch fluorescence ratio": 1}
{"sequence": "CGGACCATCC", "switch fluorescence ratio": 1.6}
{"sequence": "CGGACCCACT", "switch fluorescence ratio": 1.36}
{"sequence": "CGGAGAACTG", "switch fluorescence ratio": 1.11}
{"sequence": "CGGAGCCACT", "switch fluorescence ratio": 1.09}
{"sequence": "CGGAGGGCGA", "switch fluorescence ratio": 1.09}
{"sequence": "CGGAGGGGA", "switch fluorescence ratio": 1.01}
{"sequence": "CGGAGGGTAA", "switch fluorescence ratio": 1.05}
{"sequence": "CGGAGGTGT", "switch fluorescence ratio": 1}
{"sequence": "CGGAGTAAAA", "switch fluorescence ratio": 1.05}
{"sequence": "CGGAGTCGT", "switch fluorescence ratio": 1.14}
{"sequence": "CGGAGTCTCA", "switch fluorescence ratio": 1.08}
{"sequence": "CGGATACTAT", "switch fluorescence ratio": 1.05}
{"sequence": "CGGATATGTT", "switch fluorescence ratio": 1}
{"sequence": "CGGATCGGA", "switch fluorescence ratio": 0.965}
{"sequence": "CGGATGCAGA", "switch fluorescence ratio": 1.03}
{"sequence": "CGGATTCGG", "switch fluorescence ratio": 1.04}
{"sequence": "CGGCAAACA", "switch fluorescence ratio": 1.18}
{"sequence": "CGGCAAATTA", "switch fluorescence ratio": 1.04}
{"sequence": "CGGCAACAGT", "switch fluorescence ratio": 1.12}
{"sequence": "CGGCACAGCA", "switch fluorescence ratio": 0.983}
{"sequence": "CGGCACGGAC", "switch fluorescence ratio": 1.18}
{"sequence": "CGGCATAGTG", "switch fluorescence ratio": 1.01}
{"sequence": "CGGCATCTTA", "switch fluorescence ratio": 1.01}
{"sequence": "CGGCATGAAA", "switch fluorescence ratio": 1.01}
{"sequence": "CGGCCCACTG", "switch fluorescence ratio": 1.02}
{"sequence": "CGGCCGCCGC", "switch fluorescence ratio": 1.26}
{"sequence": "CGGCCGCCTA", "switch fluorescence ratio": 1.05}
{"sequence": "CGGCCGGCAC", "switch fluorescence ratio": 1.09}
{"sequence": "CGGCCGTA", "switch fluorescence ratio": 0.978}
{"sequence": "CGGCGACTCG", "switch fluorescence ratio": 0.984}
